Data from paper PMC4336329 (PLoS ONE, 2015).
Among all 310,000 compounds or so, about 14,000 (4.5%) showed an effect of 50% or more. Effects have a minus sign here. The list shows a part of the results.

The compounds below were run against human ether-à-go-go-related gene (hERG) potassium channel (human, UniProt Q12809) (assay: primary screen, population patch clamp on CHO cells stably expressing hERG).
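Note: peak tail current of the secondary pulse compared with the same well before compound.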

Chain of human ether-à-go-go-related gene (hERG) potassium channel (Q12809 whole entry, looked up): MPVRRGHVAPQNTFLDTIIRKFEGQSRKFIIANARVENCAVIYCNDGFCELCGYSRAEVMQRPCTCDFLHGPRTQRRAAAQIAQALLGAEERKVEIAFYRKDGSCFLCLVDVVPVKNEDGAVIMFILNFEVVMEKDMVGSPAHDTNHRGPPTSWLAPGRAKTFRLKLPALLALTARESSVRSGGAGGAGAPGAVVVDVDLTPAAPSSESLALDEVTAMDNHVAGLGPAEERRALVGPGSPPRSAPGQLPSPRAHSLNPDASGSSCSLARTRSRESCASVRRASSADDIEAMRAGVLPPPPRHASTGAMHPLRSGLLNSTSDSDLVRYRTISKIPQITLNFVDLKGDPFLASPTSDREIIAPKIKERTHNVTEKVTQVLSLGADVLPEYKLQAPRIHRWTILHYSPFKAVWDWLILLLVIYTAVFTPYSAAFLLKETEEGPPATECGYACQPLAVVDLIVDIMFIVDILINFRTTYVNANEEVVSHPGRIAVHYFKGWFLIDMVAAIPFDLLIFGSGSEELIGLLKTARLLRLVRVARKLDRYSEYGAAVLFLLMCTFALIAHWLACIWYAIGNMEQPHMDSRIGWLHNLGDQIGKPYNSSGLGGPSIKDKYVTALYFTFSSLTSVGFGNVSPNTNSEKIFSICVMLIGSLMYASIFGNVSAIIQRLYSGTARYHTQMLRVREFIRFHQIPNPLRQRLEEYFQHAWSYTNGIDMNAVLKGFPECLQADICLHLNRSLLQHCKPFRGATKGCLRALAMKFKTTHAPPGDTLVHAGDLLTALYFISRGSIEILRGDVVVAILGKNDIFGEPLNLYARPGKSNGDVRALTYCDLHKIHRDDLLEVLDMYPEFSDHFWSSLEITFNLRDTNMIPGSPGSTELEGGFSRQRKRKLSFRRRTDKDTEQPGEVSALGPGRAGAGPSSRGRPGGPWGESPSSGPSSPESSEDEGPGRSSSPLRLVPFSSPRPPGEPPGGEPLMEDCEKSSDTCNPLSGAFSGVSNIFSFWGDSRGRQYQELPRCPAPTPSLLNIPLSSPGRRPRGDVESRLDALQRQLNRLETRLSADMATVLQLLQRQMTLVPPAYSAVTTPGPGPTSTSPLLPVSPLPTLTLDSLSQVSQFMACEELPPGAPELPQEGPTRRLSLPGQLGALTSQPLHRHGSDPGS

SMILES	hERG current change (%, negative = inhibition) at 10uM
CCCCC(NC(=O)c1ccccc1)C(=O)OCC(=O)N1c2ccccc2Sc2ccccc21 (centres unmarked)	13.5%
CN(C)C(=O)c1ccc(-c2n[nH]c(=O)c3ccccc23)cc1	-22%
CC(NC(=O)Cn1cc(C(=O)C2CC2)c2ccccc21)c1ccccc1 (centres unmarked)	4.74%
Cc1nn(CC(=O)Nc2ccc(C(=O)N3CCCC3)cc2)c(=O)c2ccccc12	-1.72%
O=C(CN1C(=O)NC2(CCCc3ccccc32)C1=O)NCc1ccc(Cl)cc1Cl (centres unmarked)	-17.4%
Cn1c(O)c(C=Nc2ccc(Br)cc2)c(=O)n(C)c1=O	5.63%
O=C(CCNS(=O)(=O)c1ccccc1)NNC(=O)C1COc2ccccc2O1 (centres unmarked)	-6.71%
O=C1CC(=O)N(c2ccccc2)C(=O)N1c1ccccc1	2.76%
CC(Sc1ccccn1)C(=O)NC1CCCC1 (centres unmarked)	0.433%
O=C(O)CCC(=O)Nc1ccc(Br)cc1C(=O)c1ccc(Cl)cc1	5.74%
COCc1ccc(C(=O)N(C)C2CCCN(Cc3ccccc3F)C2)o1 (centres unmarked)	0.722%
COc1ccc2ccccc2c1CN1CCN(Cc2ccccc2)CC1	-2.66%
Cc1ccc(NC(=O)C2CCN(S(C)(=O)=O)CC2)cc1Cl	7.54%
CCOc1ccc(CNC(=O)C2CCCN(c3nnc(C)c4c(C)n(-c5ccccc5)nc34)C2)cc1 (centres unmarked)	-29.6%
CC(C)CN1CCC(=O)N([C@H](COc2ccccc2)c2ccccc2)CC1	-75.3%
C=CCn1c(=O)c2ccccc2n2c(SCC(=O)NCc3cccs3)nnc12	-32.7%
O=C(CN1C(=O)S/C(=C\C=C\c2ccccc2)C1=O)Nc1ccc(C(=O)O)cc1	9.95%
CC(=O)N1CCN(C(=O)c2ccc(NS(=O)(=O)c3ccc4c(c3)OCCO4)cc2)CC1	10.4%
CCCCOc1c(Cl)cc(CNC(C)(C)CO)cc1OCC	-4%

SMILES	hERG current change (%, negative = inhibition) at 10uM
CCC(C)(C)n1nnnc1C(c1cccc(C#N)c1)N1CCN(c2cc(C)ccc2C)CC1 (centres unmarked)	-3.57%
COc1cc(=O)oc(-c2ccccc2)c1C(C)=O	7.16%
COc1cnc(-c2ccccc2)nc1OC	12.4%
CC1=Nn2c(nc(-c3ccccc3)c2-c2ccccc2)NC(=O)C1Br (centres unmarked)	2.55%
Cc1ccc(NC(=S)N2CCCCC2)cc1C	16.4%
CC(C)CNC1CS(=O)(=O)CC1O.Cl (centres unmarked)	-2.46%
N/C(Cc1ccc(Cl)cc1Cl)=N\OC(=O)Cc1ccccc1	7.08%
O=S(=O)(c1ccccc1F)N1CCC(c2nc3ccccc3[nH]2)CC1	-13.3%
O=C(COc1ccc(S(=O)(=O)N2CCCC2)cc1)NCc1ccco1	5.11%
Cn1c(N)c(C(=O)COC(=O)CNS(=O)(=O)c2ccc(Cl)c(Cl)c2)c(=O)n(C)c1=O	-46%
Cc1ccc(-n2nc3c(c2NC(=O)c2ccc4c(c2)OCO4)CS(=O)(=O)C3)c(C)c1	10.8%
CC(OC(=O)c1ccc(S(=O)(=O)NCc2ccco2)cc1)C(=O)Nc1ccc(Cl)cn1 (centres unmarked)	-39.8%
Cc1c(NS(=O)(=O)c2ccc3c(c2)CCN3C(=O)C2CC2)c(=O)n(-c2ccccc2)n1C	-15.5%
O=C(C[n+]1ccccc1)N/N=C/c1cccs1.[Cl-]	12%
Nc1c(C(=O)N/N=C/c2ccccc2Cl)oc2nc(-c3ccccc3)cc(-c3ccco3)c12	22.1%
COc1ccccc1CCNC(=O)C1CCN(c2nnc(C)c3c(C)n(-c4ccc(C)cc4)nc23)CC1	-23.4%
NC(=O)c1c(NC(=O)c2ccc(N3C(=O)CCC3=O)cc2)sc2c1CCCC2	-7.65%
O=C(CSc1nnc(-c2ccccc2)o1)Oc1ccc(Br)cc1	-6.63%
CC(=O)c1ccc(Sc2ccccc2)c([N+](=O)[O-])c1	-3.46%

SMILES	hERG current change (%, negative = inhibition) at 10uM
COc1cccc(CNS(=O)(=O)/C=C/c2ccc3c(c2)OCO3)c1	-17.8%
COCCn1c(SCC(=O)NC2CCCC2)nc2c(c1=O)SCC2	6.14%
CCc1cccc(C)c1N1C(=O)CN(Cc2ccccc2)C1=S	-17.8%
COc1ccc(CCNC(=O)c2ccc(CS(=O)(=O)c3ccc(Br)cc3)o2)cc1OC	-13.2%
CCCCN(C(=O)C1=NN(c2ccccc2)C(=O)CC1)c1c(N)n(CC(C)C)c(=O)[nH]c1=O	-3.93%
CSc1ccccc1NC(=O)CN(C)CC(=O)Nc1ccccc1N1CCOCC1	-8.94%
O=C(CN1C(=O)NC2(CCCC2)C1=O)Nc1ccc(Cl)cc1F	17.1%
O=C(NC(=S)Nc1ccc(Cc2ccncc2)cc1)c1ccccc1	-3.13%
CC1(C)CC(=O)C2=C(C1)Nc1ccccc1[S@]2=O	6.89%
CCOC(=O)Cc1csc(NC(=O)COc2ccccc2OC)n1	-14.2%
Cc1ccc(Nc2c(-c3ccccn3)nc3cc(C)ccn23)cc1	-48.1%
Cc1cc(NCCCn2ccnc2)n2ncc(-c3ccccc3)c2n1	-67.6%
Nc1c(-c2ccccc2)sc2ccc3ccccc3[n+]12.O=S(=O)([O-])c1ccccc1	-58.3%
Cc1nc2cc(N=NC3=C(O)CCCC3=O)ccc2s1	20.9%
O=C(Nc1nnc(C2CC2)s1)c1ccncc1	3.02%
COc1ccc(CC(C)Nc2cccc(SC)c2)cc1 (centres unmarked)	13.5%
O=C(C1CCC(=O)N1Cc1cccs1)N1CCOCC1 (centres unmarked)	13.1%
CCOC(=O)C1CCCN(C(=O)c2cn(CC(C)C)c(=O)c3cc(OC)c(OC)cc23)C1 (centres unmarked)	5.47%
